Data taken from the supplement of paper PMC9135407.
Several values for one entry are separate records, joined by “and”; a condition that tells them apart may be missing. Equal entries are not always repeated. Structures can show the parent of a compound that is named as a salt. About 620 (11%) of roughly 5,800 compounds showed activity.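 Rule for the calls: active = score above a cut-off or among the top three wells of a plate; in these data no inactive exceeds 0.85.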 This is a selection; strong and weak results do not stand in their true shares.

Tested on: primary human hepatic stellate cells (donor 1)
Experiment: scaled lipid accumulation score (0 = DMSO-like, 1 = nortriptyline-like); higher = stronger HSC inactivation (lipid re-accumulation), active = hit call of the paper
Conditions: 48 h
[1] = library stock concentration: 10 mM
[2] = library stock concentration: 3.33 mM
[3] = library stock concentration: 400 uM
[4] = library stock concentration: 2 mM
[5] = library stock concentration: 1 mM
[6] = library stock concentration: 5.3 mM
[7] = library stock concentration: 4.7 mM

Cc1c(N(C)CS(=O)(=O)O)c(=O)n(-c2ccccc2)n1C [Dipyrone]
scaled lipid accumulation score: inactive: ≤ 0 | scaled lipid accumulation score (library stock concentration: 6 mM): inactive: ≤ 0 | scaled lipid accumulation score [1]: inactive: ≤ -0.001

C#CC[C@H](c1nc2cc(Cl)ccc2c(=O)n1Nc1ccccc1)N(CCCN)C(=O)c1cccc(Cl)c1F
scaled lipid accumulation score [2]: inactive: 0.132 | scaled lipid accumulation score [1]: inactive: ≤ 0

C[C@@H]1CCN(C(=O)CC#N)C[C@@H]1N(C)c1ncnc2[nH]ccc12
scaled lipid accumulation score [3]: inactive: ≤ -0.005 | scaled lipid accumulation score [4]: inactive: ≤ -0.005 | scaled lipid accumulation score [2]: inactive: ≤ 0 | scaled lipid accumulation score [1]: inactive: ≤ -0.001 and inactive: ≤ 0 and inactive: ≤ -0.005

CN(C)[C@@H]1C(O)=C(C(=O)NCN2CCCC2)C(=O)[C@@]2(O)C(O)=C3C(=O)c4c(O)cccc4[C@@](C)(O)[C@H]3C[C@@H]12 [Rolitetracycline]
scaled lipid accumulation score: inactive: ≤ 0

CN(C)[C@@H]1C(O)=C(C(=O)NCN2CCCC2)C(=O)[C@@]2(O)C(O)=C3C(=O)c4c(O)cccc4[C@@](C)(O)[C@H]3C[C@@H]12
scaled lipid accumulation score [1]: inactive: ≤ 0

CCCCCC/C=C\CCCCCCCC(=O)OCC [Palmitoleic Acid ethyl ester]
scaled lipid accumulation score [5]: inactive: ≤ 0

CC(NCCC(c1ccccc1)c1ccccc1)c1ccccc1 (stereo not given) [Fendiline hydrochloride]
scaled lipid accumulation score: inactive: 0.144 | scaled lipid accumulation score [1]: inactive: 0.431

C[C@@H]1COCCN1c1cc(C2(S(C)(=O)=O)CC2)nc(-c2cccc3[nH]ccc23)n1
scaled lipid accumulation score (library stock concentration: 80 uM): inactive: ≤ -0.016 | scaled lipid accumulation score [3]: inactive: ≤ -0.016 | scaled lipid accumulation score [4]: inactive: ≤ -0.016 | scaled lipid accumulation score [1]: inactive: ≤ -0.016

O=c1[nH]c(=O)n(C2CCCO2)cc1F (stereo not given) [Ftorafur]
scaled lipid accumulation score [1]: inactive: ≤ 0

O=c1[nH]c(=O)n(C2CCCO2)cc1F (stereo not given)
scaled lipid accumulation score [2]: inactive: ≤ 0 | scaled lipid accumulation score [1]: inactive: ≤ 0

Cc1cc2c(F)c(Oc3ncnn4cc(OC[C@@H](C)OC(=O)[C@H](C)N)c(C)c34)ccc2[nH]1
scaled lipid accumulation score [2]: inactive: ≤ 0 | scaled lipid accumulation score [1]: inactive: ≤ 0

CCN(CC)CCOc1ccc(Cc2ccccc2)cc1.O=C(O)/C=C/C(=O)O [DPPE fumarate]
scaled lipid accumulation score [1]: active: 0.879

COc1ccc(-c2cnc3c(-c4ccsc4)cnn3c2)cc1 [VEGF Receptor 2 Kinase Inhibitor IV]
scaled lipid accumulation score [2]: inactive: ≤ 0

CCCCCCCCCCCCC(O)C(=O)O (stereo not given) [2-Hydroxymyristic acid]
scaled lipid accumulation score [5]: inactive: 0.03

CCCCCCCCCCCCC(O)C(=O)O (stereo not given) [2-Hydroxymyristic Acid]
scaled lipid accumulation score [5]: inactive: ≤ 0

CCC(CO)Nc1nc(NCc2ccccc2)c2ncn(C(C)C)c2n1 [Roscovitine, (S)-Isomer]
scaled lipid accumulation score [2]: inactive: ≤ 0

Nc1nc2ccc(Cl)cc2c2nc(-c3ccco3)nn12
scaled lipid accumulation score [1]: inactive: ≤ 0 and inactive: ≤ -0.043 and inactive: ≤ -0.006

COc1cc2c(cc1C(F)(F)F)N(C(=O)Nc1cc(F)cc(-c3cccnc3)c1)CC2
scaled lipid accumulation score [1]: inactive: 0.676

CCC(C)N(C)C(=O)c1cc2ccccc2c(-c2ccccc2Cl)n1 (stereo not given)
scaled lipid accumulation score [1]: inactive: 0.007 and inactive: ≤ 0

CCCCC/C=C\C[C@@H](O)/C=C/C=C/C=C\[C@@H](O)CCCC(=O)O [Leukotriene B4]
scaled lipid accumulation score (library stock concentration: 100 uM): inactive: ≤ -0.021

O=C(NCc1cccc(O)c1)Nc1nc(-c2ccncc2)cs1
scaled lipid accumulation score [1]: active: 1.02

O=S(=O)(O)NC1CCCCC1 [Cyclamic  acid]
scaled lipid accumulation score [2]: inactive: ≤ 0 | scaled lipid accumulation score [1]: inactive: 0.079

O=S(=O)(O)NC1CCCCC1
scaled lipid accumulation score [1]: inactive: 0.083

CC[C@]12CCCN3CCc4c(n(c5ccccc45)[C@](O)(C(=O)OC)C1)[C@@H]32 [Epivincamine]
scaled lipid accumulation score: inactive: ≤ 0

CCc1cn([C@H]2C[C@H](O)[C@@H](CO)O2)c(=O)[nH]c1=O [Edoxudine]
scaled lipid accumulation score (library stock concentration: 7.8 mM): inactive: ≤ 0 | scaled lipid accumulation score [1]: inactive: 0.436

CC(C)NC[C@@H](O)COc1cccc2ccccc12 [(R)-(+)-Propranolol hydrochloride]
scaled lipid accumulation score [1]: inactive: 0.656

CC(C)NC[C@@H](O)COc1cccc2ccccc12 [Dexpropranolol hydrochloride]
scaled lipid accumulation score (library stock concentration: 6.8 mM): inactive: 0.521 | scaled lipid accumulation score [1]: inactive: ≤ 0

CC(C)NC[C@@H](O)COc1cccc2ccccc12 [(R)-Propranolol hydrochloride]
scaled lipid accumulation score: inactive: 0.415

OC1(c2ccc(Cl)cc2)CCN(Cc2c[nH]c3ccccc23)CC1
scaled lipid accumulation score [1]: active: 1.17

CCN(CC)CCc1nc(-c2ccccc2)no1
scaled lipid accumulation score [1]: inactive: ≤ 0

CCN(CC)CCc1nc(-c2ccccc2)no1 [Oxalamine citrate salt]
scaled lipid accumulation score: inactive: ≤ 0

CNCC(O)c1ccc(OC(=O)C(C)(C)C)c(OC(=O)C(C)(C)C)c1 (stereo not given) [Dipivefrin hydrochloride]
scaled lipid accumulation score: inactive: ≤ 0

CCOc1c2c(c(OCC)c3ccccc13)C(=O)N(c1ccc(CC(=O)NS(=O)(=O)c3ccccc3)cc1)C2
scaled lipid accumulation score [5]: inactive: ≤ 0

COc1ccc([C@]2(C#N)CC[C@@H](C(=O)O)CC2)cc1OC1CCCC1 [Cilomilast]
scaled lipid accumulation score [2]: inactive: ≤ 0 | scaled lipid accumulation score [1]: inactive: ≤ 0

CC(C)NCC(O)c1ccc(O)c(O)c1 (single isomer, unassigned; (+)) [(+)-Isoproterenol (+)-bitartrate salt]
scaled lipid accumulation score: inactive: ≤ 0

O=C(NCCO)c1cccc(-c2cc(Nc3ccc(OC(F)(F)F)cc3)ncn2)c1
scaled lipid accumulation score [2]: inactive: ≤ -0.009 | scaled lipid accumulation score [1]: inactive: 0.83

COCC[n+]1c2c(n(Cc3cnccn3)c1C)C(=O)c1ccccc1C2=O [YM155 (Sepantronium Bromide)]
scaled lipid accumulation score [2]: inactive: 0.529 | scaled lipid accumulation score [1]: inactive: 0.748

Nc1ncnc2c1c(-c1ccc(Oc3ccccc3)cc1)cn2C1CCCC1
scaled lipid accumulation score [1]: inactive: ≤ -0.07

COCCCCCCCCCCCC(=O)O [12-Methoxydodecanoic acid]
scaled lipid accumulation score [5]: inactive: ≤ -0.021

C[C@H]1C[C@@H]2[C@H]([C@@H](O)C[C@@]3(C)[C@H]2CC[C@]3(O)C(=O)CO)[C@@]2(C)C=CC(=O)C=C12 [Methylprednisolone, 6-alpha]
scaled lipid accumulation score: inactive: ≤ 0

C[C@H]1C[C@@H]2[C@H]([C@@H](O)C[C@@]3(C)[C@H]2CC[C@]3(O)C(=O)CO)[C@@]2(C)C=CC(=O)C=C12
scaled lipid accumulation score [1]: inactive: ≤ 0

C[C@H]1C[C@@H]2[C@H]([C@@H](O)C[C@@]3(C)[C@H]2CC[C@]3(O)C(=O)CO)[C@@]2(C)C=CC(=O)C=C12 [Methylprednisolone]
scaled lipid accumulation score [2]: inactive: ≤ 0 | scaled lipid accumulation score [6]: inactive: 0.003 and inactive: ≤ -0.001 | scaled lipid accumulation score [1]: inactive: ≤ 0

CCCNCC(O)COc1ccccc1C(=O)CCc1ccccc1 (stereo not given) [Propafenone]
scaled lipid accumulation score (library stock concentration: 5.9 mM): inactive: 0.566

CCCNCC(O)COc1ccccc1C(=O)CCc1ccccc1 (stereo not given) [Propafenone hydrochloride]
scaled lipid accumulation score: inactive: 0.742 | scaled lipid accumulation score [6]: inactive: 0.429 | scaled lipid accumulation score [1]: inactive: 0.365

CCCNCC(O)COc1ccccc1C(=O)CCc1ccccc1 (stereo not given) [Rythmol]
scaled lipid accumulation score [1]: inactive: 0.811

CCCNCC(O)COc1ccccc1C(=O)CCc1ccccc1 (stereo not given) [Propafenone HCl]
scaled lipid accumulation score [2]: inactive: 0.241 | scaled lipid accumulation score [1]: inactive: 0.684

O=C1c2ccc(Nc3ccc(F)cc3F)cc2CCc2ccc(OC[C@H](O)CO)cc21 [Skepinone-L]
scaled lipid accumulation score [2]: inactive: 0.058 | scaled lipid accumulation score [1]: inactive: 0.357

CCCCCCCCCCCCCCCCCC(=O)OC(CC(=O)O)C[N+](C)(C)C (racemic) [DL-Stearoylcarnitine chloride]
scaled lipid accumulation score [1]: inactive: 0.037

O=[N+]([O-])c1cccc2cn[nH]c12 [7-Nitroindazole]
scaled lipid accumulation score [1]: inactive: ≤ -0.055 and inactive: ≤ 0

O=[N+]([O-])c1cccc2cn[nH]c12
scaled lipid accumulation score [1]: inactive: ≤ 0

COc1ccccc1OCC(O)CN1CCN(CC(=O)Nc2c(C)cccc2C)CC1 (stereo not given) [Ranolazine 2HCl]
scaled lipid accumulation score [2]: inactive: ≤ 0 | scaled lipid accumulation score [7]: inactive: ≤ 0 | scaled lipid accumulation score [1]: inactive: ≤ 0

COc1ccccc1OCC(O)CN1CCN(CC(=O)Nc2c(C)cccc2C)CC1 (stereo not given) [Ranolazine dihydrochloride]
scaled lipid accumulation score [1]: inactive: ≤ 0

COc1ccccc1OCC(O)CN1CCN(CC(=O)Nc2c(C)cccc2C)CC1 (stereo not given) [Ranolazine]
scaled lipid accumulation score: inactive: ≤ 0 | scaled lipid accumulation score [2]: inactive: ≤ 0 | scaled lipid accumulation score [7]: inactive: ≤ 0 | scaled lipid accumulation score [1]: inactive: ≤ 0 and inactive: ≤ -0.027

COc1cc(/C=C(\C#N)C(=O)Nc2nnc(C(F)(F)F)s2)ccc1OCc1ccc(C(F)(F)F)cc1C(F)(F)F
scaled lipid accumulation score [1]: inactive: ≤ 0

COc1cc([C@@H]2c3cc4c(cc3[C@@H](O[C@@H]3O[C@@H]5CO[C@@H](C)O[C@H]5[C@H](O)[C@H]3O)[C@H]3COC(=O)[C@H]23)OCO4)cc(OC)c1O [Etoposide]
scaled lipid accumulation score: inactive: ≤ 0 | scaled lipid accumulation score [2]: inactive: ≤ 0 | scaled lipid accumulation score [1]: inactive: ≤ 0 and inactive: 0.026 and inactive: ≤ -0.006

O=P(O)(O)O[C@H]1[C@H](O)[C@@H](O)[C@H](OP(=O)(O)O)[C@@H](OP(=O)(O)O)[C@H]1O [D-myo-Inositol-1,3,4-triphosphate (sodium salt)]
scaled lipid accumulation score [5]: inactive: ≤ 0

CCCCCCCC/C=C\CCCCCC(=O)OC [cis-7-Hexadecenoic Acid methyl ester]
scaled lipid accumulation score [5]: inactive: ≤ 0

CC(=O)Oc1ccc2c(c1)CCC1C2CC[C@]2(C)C(=O)CCC12 (stereo not given in full) [Estrone acetate]
scaled lipid accumulation score [1]: inactive: ≤ 0

Nc1nc2n[nH]nc2c(=O)[nH]1 [Azaguanine-8]
scaled lipid accumulation score: inactive: 0.305 | scaled lipid accumulation score [2]: inactive: ≤ 0 | scaled lipid accumulation score [1]: inactive: 0.419

Nc1nc2c(nc(Br)n2C2OC3COP(=O)(O)O[C@@H]3C2O)c(=O)[nH]1 (stereo not given in full) [8-Bromo-cGMP sodium]
scaled lipid accumulation score [1]: inactive: ≤ 0

CCCCCC(O)CCC1C(O)CC(=O)C1CCCCCCC(=O)O (stereo not given) [13,14-dihydro Prostaglandin E1]
scaled lipid accumulation score [5]: inactive: ≤ 0

CCCCCC(O)CCC1C(O)CC(=O)C1CCCCCCC(=O)O [13,14-dihydro-15(R)-Prostaglandin E1]
scaled lipid accumulation score [5]: inactive: ≤ 0
